Results published in PMC4336329 (PLoS ONE, 2015).
Screen size: about 310,000 compounds; about 14,000 (4.5%) showed an effect of 50% or more. Effects have a minus sign here. Some of the results follow.

Each compound was assayed against human ether-à-go-go-related gene (hERG) potassium channel (human, UniProt Q12809) (assay: primary screen, population patch clamp on CHO cells stably expressing hERG).
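Also: peak tail current of the secondary pulse compared with the same well before compound.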

Chain of human ether-à-go-go-related gene (hERG) potassium channel (Q12809 whole entry, looked up): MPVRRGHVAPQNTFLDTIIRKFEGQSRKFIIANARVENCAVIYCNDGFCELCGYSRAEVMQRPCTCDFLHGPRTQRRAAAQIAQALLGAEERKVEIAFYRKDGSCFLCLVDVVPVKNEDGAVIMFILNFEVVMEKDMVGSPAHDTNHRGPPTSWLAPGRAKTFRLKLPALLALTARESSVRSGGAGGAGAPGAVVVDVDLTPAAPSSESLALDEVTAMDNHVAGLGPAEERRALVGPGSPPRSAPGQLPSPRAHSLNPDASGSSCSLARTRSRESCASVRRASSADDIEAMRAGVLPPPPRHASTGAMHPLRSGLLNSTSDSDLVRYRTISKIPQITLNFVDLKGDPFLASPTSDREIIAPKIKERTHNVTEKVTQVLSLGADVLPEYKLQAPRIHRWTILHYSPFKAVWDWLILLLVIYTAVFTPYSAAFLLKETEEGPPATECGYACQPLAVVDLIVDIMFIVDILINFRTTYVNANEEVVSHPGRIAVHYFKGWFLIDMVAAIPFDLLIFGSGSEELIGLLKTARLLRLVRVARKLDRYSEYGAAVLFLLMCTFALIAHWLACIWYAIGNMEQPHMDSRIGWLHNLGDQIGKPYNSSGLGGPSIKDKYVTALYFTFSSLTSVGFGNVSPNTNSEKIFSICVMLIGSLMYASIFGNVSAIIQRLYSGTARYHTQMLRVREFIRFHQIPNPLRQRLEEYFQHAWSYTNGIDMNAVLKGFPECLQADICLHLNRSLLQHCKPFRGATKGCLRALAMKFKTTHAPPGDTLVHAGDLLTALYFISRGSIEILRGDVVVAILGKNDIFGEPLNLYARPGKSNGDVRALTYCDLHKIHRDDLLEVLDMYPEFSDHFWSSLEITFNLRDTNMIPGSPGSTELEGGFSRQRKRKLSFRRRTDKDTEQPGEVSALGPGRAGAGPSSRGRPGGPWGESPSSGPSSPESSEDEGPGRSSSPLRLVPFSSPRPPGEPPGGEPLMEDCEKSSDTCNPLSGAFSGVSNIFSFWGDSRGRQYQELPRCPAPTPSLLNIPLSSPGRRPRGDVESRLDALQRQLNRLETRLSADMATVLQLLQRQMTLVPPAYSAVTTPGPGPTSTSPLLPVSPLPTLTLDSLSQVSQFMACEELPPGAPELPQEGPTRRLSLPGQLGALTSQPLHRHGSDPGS

Structure (SMILES) | hERG current change (%, negative = inhibition) at 10uM [%]
O=C(CCn1c(=S)oc2ccccc21)Nc1ccccc1Br | 18.9
O=C1c2ccccc2NC2(CCCC2)N1O | -2.23
CC1(C)Cc2c(cnn2-c2ccccc2)C(NC(=O)CCCN2CCCCC2=O)C1 (centres unmarked) | 9.01
C[C@H](NC(=O)c1nc[nH]c1C(=O)NCC(=O)OC(C)(C)C)c1ccccc1 | -8.21
C/C(Nc1ccc(C)cc1)=C(/C#N)C(N)=O | 5.72
Cc1ccc(CC(=O)OCCNC(=O)c2cccnc2)cc1.Cl | -1.83
Cc1ccc(NC(=O)CCCC(=O)O)c(-c2nc3ccccc3[nH]c2=O)c1 | 8.05
CCN1CCN(CC(=O)N2N=C(c3cccs3)CC2c2ccc(C)cc2)C(=O)C1=O (centres unmarked) | -31
COc1ccccc1CNC(=O)C/C(C)=N/NC(=O)Cc1ccccc1 | -14
O=C(c1cc(-c2ccccc2)on1)N1CCCc2ccccc21 | -18.1
CC(C)(C)c1ccccc1OCCOCCSc1ncccn1 | -3.85
O=C(O)c1[nH]c2ccc(Cl)cc2c1CC(=O)N1CCN(c2ccccc2)CC1 | 7.42
CCOC(=O)c1c(S(=O)(=O)NCC(=O)Nc2cccc(C)c2)c(C)n(C)c1C | 20.1
O=S(=O)(NCCc1ccncc1)c1ccc(S(=O)(=O)N2CCCCCC2)cc1 | -5.98
Cc1nc2ccccn2c1/C(O)=C1\C(=O)C(=O)N(CCCn2ccnc2)C1c1ccncc1 (centres unmarked) | 4.18
COc1ccc(CCNC(=O)c2cnn(-c3ccc(C)c(C)c3)c2NC(=O)c2ccco2)cc1OC | -4.46
CC(C)(Oc1ccc(Cl)cc1)C(=O)Nc1ccncc1 | -21.7
CC(=O)NC(=O)NC(C)Cc1ccccc1 (centres unmarked) | 13.4
O=C(NC1CCCC1)c1cc(-c2ccc(Cl)cc2)on1 | 8.04
COCCN=C1NN=C(c2cc(C)n(CC3CCCO3)c2C)CS1 (centres unmarked) | 19.2
COc1ccc(CN2C(=O)c3ccccc3C2C(=O)NCC2CCCO2)c(OC)c1 (centres unmarked) | 7.33
CCC(C(=O)OCC(=O)NC1CCS(=O)(=O)C1)c1ccccc1 (centres unmarked) | -2.44

Structure (SMILES) | hERG current change (%, negative = inhibition) at 10uM [%]
CC1CCN(S(=O)C23CC4CC(CC(C4)C2)C3)CC1 (centres unmarked) | 14.2
CC(C)(C)C1CCC(OC(=O)CN2CCOCC2)CC1 (centres unmarked) | 2.28
N#C/C(=C\C=C\c1ccccc1[N+](=O)[O-])c1nc(-c2ccc3c(c2)OCO3)cs1 | -13.1
O=c1cc(-c2ccc(O)cc2)oc2c(O)c(O)c(O)c(O)c12 | 5.79
CC1CCCC(C)N1/N=C/c1ccccc1F (centres unmarked) | 12.1
Cc1cc[n+](-c2[nH]c(=O)sc2/C=N/N=C(\[O-])CCn2c3ccccc3c3ccccc32)cc1 | 11.1
CCCCSc1ncc(C(=O)OCC)c(N)n1 | -19.5
Cc1cccc(-c2nc(CS(=O)CC(=O)NCCc3ccc(Cl)cc3)c(C)o2)c1 (centres unmarked) | -4.38
O=C(Nc1nc2ccc(Cl)cc2s1)c1ccc(N2CCCCC2)c([N+](=O)[O-])c1 | 10.6
Cc1nn(Cc2noc(C(=O)NCCCn3ccnc3)n2)c(C)c1Br | 14
Cc1cccc(C(=O)NCC(=O)N2CCOCC2)c1 | 6
Cl.OCCN(CCO)CC(O)COc1ccc2c(c1)OCO2 (centres unmarked) | 2.18
COc1ccc(NS(=O)(=O)c2ccc(C)c(C(=O)N3CC(C)OC(C)C3)c2)cc1 (centres unmarked) | -14
COc1cc(CNCCc2ccccc2F)ccc1OCC(=O)N1CCCCC1.Cl | 1.99
CC(C)(C)c1ccc2c(c1)OCC(C(=O)O)O2 (centres unmarked) | 15.8
Cc1cnc(C(=O)NCCc2ccc(S(=O)(=O)NC(=O)NC3CCCCC3)cc2)cn1 | 0.262
O=C(Oc1ccc(C(=S)N2CCOCC2)cc1)c1ccc([N+](=O)[O-])cc1 | 16.6
CCn1c(SCC(=O)NCc2ccco2)nc2cccnc21 | 0.868
COc1ccc(NC(=O)c2nn(C)c(C(=O)Nc3ccc(OC)cc3)c2[N+](=O)[O-])cc1 | 25.2
CC(C)CNS(=O)(=O)c1ccc(S(=O)(=O)NC2CCOC(C)(C)C2)cc1 (centres unmarked) | -0.841
CCOC(=O)C1CCN(C(=O)Cn2c(=O)c3cccn3c3cccnc32)CC1 | 3.76
CC1CCc2nc(NC(=O)CN3CCN(c4ccc(F)cc4)CC3)sc2C1 (centres unmarked) | -4.39

Structure (SMILES) | hERG current change (%, negative = inhibition) at 10uM [%]
COc1ccc(-c2nonc2NC(=O)c2oc3ccccc3c2C)cc1OC | 3
COc1cccc(/C=N/NC(=O)c2ccc(CN3c4cccc5cccc(c45)S3(=O)=O)cc2)c1 | 6.69
CCOC(=O)c1oc2ccc(S(=O)(=O)n3nc(-c4cc(OC)c(OC)c(OC)c4)cc3N)cc2c1C | -2.44
CC(Sc1nnc2ccccn12)C(=O)Nc1ncc(Cl)cc1Cl (centres unmarked) | 1.17
COC(=O)Cn1cnc2c(nnn2-c2ccc(OC)cc2)c1=O | 8.87
Cc1ccc(N2C(=O)c3ccc(C(=O)N4CCN(c5cccc(C)c5C)CC4)cc3C2=O)cc1 | -4.83
O=C(NC1C2CC3CC(C2)CC1C3)c1ccc2c(c1)OCO2 (centres unmarked) | -5.92
Cl.O[C@@H]1CCCC[C@H]1N1CCC(c2ccccc2)CC1 | 6.07
CCOc1ccc(S(=O)(=O)N(C)CC(=O)N2CCN(CC)CC2)cc1 | 6.16
O=C(N/N=C/c1coc2ccccc2c1=O)c1cn(-c2ccccc2)nc1-c1ccccc1 | 8.99
CN(C)CCN1C(=O)C(=O)/C(=C(/O)c2ccc3c(c2)OCCO3)C1c1ccccn1 (centres unmarked) | 18.4
CC(C)CN1C(=O)NC2(CCCc3ccccc32)C1=O (centres unmarked) | -4.12
COc1ccc(NC(=O)C(c2ccc(OC)cc2)N(C)C(=O)CC2NC(=O)NC2=O)cc1 (centres unmarked) | 12.6
Cc1cc(C)c(S(=O)(=O)N2CCOC2CNC(=O)C(=O)NCCCN2CCOCC2)c(C)c1 (centres unmarked) | 1.05
Cc1noc(C)c1COC(=O)c1cccc(S(=O)(=O)N2CCCCCC2)c1 | -25.8
COc1ccc(NC(=O)CN2C(=O)c3ccccc3S2(=O)=O)cc1OC | 14.6
NC(=S)N/N=C/c1coc2ccc(O)cc2c1=O | -27.6
CCOC(=O)CSc1nc2cc3c(cc2cc1C)OCO3 | 4.81
CC(=O)c1cccc(NC(=O)Cn2cnc(S(=O)(=O)N3CCCCC3)c2)c1 | 12
O=C(CSc1ccc(Cl)cc1)Nc1cccc(NC(=O)c2ccco2)c1 | -10.1
O=C1N=C(N2CCCCC2)S/C1=C\c1ccccc1F | -15.1
Cc1noc(C)c1S(=O)(=O)Nc1cccc(C(F)(F)F)c1 | 8.7

Structure (SMILES) | hERG current change (%, negative = inhibition) at 10uM [%]
COc1cccc(C(=O)N2C[C@H]3C[C@@H](C2)c2cccc(=O)n2C3)c1 | -6.2
CC(=O)Nc1cccc(NC(=O)COC(=O)CO/N=C(\C)c2ccc3c(c2)OCO3)c1 | 22.3
COC(=O)c1cc(Cl)cc2c(C)c(C3(O)CCCCC3)[nH]c12 | 15
C/C(=N/NC(=O)CNC(=O)C(c1ccccc1)c1ccccc1)c1ccco1 | 12.9
Nn1c(SCC(=O)NCCC2=CCCCC2)nnc1C(F)(F)F | -4.61
O=C(N/N=C/c1cc(Br)ccc1O)C(=O)Nc1ccccc1OC(F)(F)C(F)F | -0.00182
Cc1ccc(NC(=S)NNc2ccc([N+](=O)[O-])cc2S(=O)(=O)Nc2ccccc2C(=O)O)cc1C | 22
Cc1ccc(S(=O)(=O)N(C)CCCC(=O)N2CCN(c3ccccn3)CC2)cc1.[O-][Cl+3]([O-])([O-])O | -46.7
CCCCN(CCCC)c1cn[nH]c(=O)c1Cl | -8.25
O=C(COC(=O)c1ccc(F)cc1Cl)Nc1cccc(S(=O)(=O)N2CCOCC2)c1 | -42.4
Br.O=C(CN1C2=NCCCN2c2ccccc21)c1ccc([N+](=O)[O-])cc1 | -75.1
CNc1ccc2oc(C[C@H]3O[C@@]4(CC[C@H]3C)O[C@H]([C@H](C)C(=O)c3ccc[nH]3)[C@H](C)C[C@H]4C)nc2c1C(=O)O | 4.8
O=C(ONC1=NCCCCC1)c1ccc([N+](=O)[O-])cc1 | -5.87
CC(=O)c1cccc(Nc2ncnc3ccc(Br)cc23)c1 | -20.4
CSc1ccc(S(=O)(=O)N2CCCC2)cc1 | 9.36
COc1cc2c(cc1OC)C(C)N(C(=O)c1c(C)noc1C)CC2 (centres unmarked) | 14.2
O=C(Nc1ccc(S(=O)(=O)NC2=NCCCCC2)cc1)c1cc(S(=O)(=O)N2CCOCC2)ccc1F | 5.46
O=C(Nc1cccc2nsnc12)C1CC(=O)N(c2ccccc2)C1 (centres unmarked) | -4.16
CCN(CC)c1ccc(/C=N/Nc2ccccc2)c(O)c1 | -0.389
Cc1cc(NC(=O)CSc2nc3ccccc3n2CC(=O)N2CC(C)CC(C)C2)no1 (centres unmarked) | 9.55
